Results on one protein are retold here after doi:10.1101/2023.12.11.571147 (bioRxiv, 2023).

This series deals with the molecule itself. The experiment in a line: thioflavin T aggregation assay.

B1: Recombinant Htau40ΔK280 (natural protein)
chain: not shown
Take B1: the binding result is given as “binds”.
